# Assay results as given in paper PMC6919601, “Identification of Plasmodium dipeptidyl aminopeptidase allosteric inhibitors by high throughput screening” (PLoS ONE, 2019).
# Where “and” joins values, the source holds several entries; their conditions need not be identical. Equal values may be shown once. The campaign covered roughly 110,000 compounds. About 230 (0.21%) showed an effect of 50% or more. Some of the results follow.
# Biological target: DPAP1 (Plasmodium falciparum, UniProt Q8IIJ9)
# Assay: primary screen, percent inhibition; read by cleavage of a fluorogenic dipeptide substrate; higher = more effect of the substance
# Design: species or system P. falciparum D10 trophozoite lysates; single well
# 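Further: 30 min substrate incubation versus DMSO and 10 µM JCP410 controls.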
# Sequence of DPAP1 (Q8IIJ9 whole entry, looked up): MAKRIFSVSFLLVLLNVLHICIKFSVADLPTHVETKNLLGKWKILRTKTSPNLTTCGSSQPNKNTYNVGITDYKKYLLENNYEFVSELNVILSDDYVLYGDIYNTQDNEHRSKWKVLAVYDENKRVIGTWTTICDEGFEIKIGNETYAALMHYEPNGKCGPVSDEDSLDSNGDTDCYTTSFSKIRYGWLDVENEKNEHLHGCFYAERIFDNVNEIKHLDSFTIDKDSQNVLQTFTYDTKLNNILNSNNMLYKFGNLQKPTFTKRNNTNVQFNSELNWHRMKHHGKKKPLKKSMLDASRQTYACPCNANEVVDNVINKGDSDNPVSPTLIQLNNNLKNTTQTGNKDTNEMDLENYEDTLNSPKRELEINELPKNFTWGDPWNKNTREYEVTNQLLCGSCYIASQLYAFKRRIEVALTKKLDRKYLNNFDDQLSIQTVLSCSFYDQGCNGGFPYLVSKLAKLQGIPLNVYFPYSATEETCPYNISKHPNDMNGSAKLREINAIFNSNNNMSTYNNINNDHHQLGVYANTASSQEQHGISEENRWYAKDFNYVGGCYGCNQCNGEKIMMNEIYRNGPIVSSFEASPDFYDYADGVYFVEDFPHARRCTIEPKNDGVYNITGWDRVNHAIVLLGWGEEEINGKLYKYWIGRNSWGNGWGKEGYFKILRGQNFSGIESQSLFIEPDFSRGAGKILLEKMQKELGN
row,Compound,% Inhibition @ 10 uM
1,O=C1S/C(=C\c2ccccn2)C(=O)N1Cc1ccccc1F,-5.82%
2,Cc1cccc(-c2nnc3sc(NC(=O)COc4ccccc4F)nn23)c1,-1.26%
3,COc1cccc(C(=O)Cn2c(N3CCOCC3)nc3c2c(=O)n(C)c(=O)n3C)c1,4.11%
4,COc1ccc(C(C)C)cc1S(=O)(=O)NCC1CCCO1 (stereo not drawn),1.94%
5,CSc1ccccc1NC(=O)CSc1nccn1C,7.18%
6,O=C(O)c1ccc(NCc2cccs2)cc1,-2.18%
7,CCOC(=O)C1=CN(C(C)C)C=C(C(=O)OCC)C1c1cccc(OC)c1,1.86%
8,CCOC(=O)C1CCN(c2ccc3ccccc3n2)CC1,-2.48%
9,O=C(O)Cn1cc(/C=C2/NC(=O)N(c3cccc(Cl)c3)C2=O)c2ccccc21,1.96%
10,O=C(CCCN1C(=O)C(c2ccccc2)Oc2cccnc21)NCCC1=CCCCC1 (stereo not drawn),-6.3%
11,COc1ccc(C(=O)N(C)C2CCCCC2)cc1,0.247%
12,COc1cc(NS(=O)(=O)c2ccccc2)cc(OC)c1,5.9%
13,COC(=O)c1ccc(-c2ccco2)n1Cc1nc(-c2ccc(OC)c(OC)c2)oc1C,-2.17%
14,CCN(C(=O)c1ccc([N+](=O)[O-])cc1)c1ccccc1,1.48%
15,CCOC(=O)N1CCN(C(=O)c2cc3cc4ccc(OC)cc4nc3o2)CC1,-3.35%
16,CC(C)(C)C1CCc2c(sc3nnn(CC(=O)c4ccccc4)c(=O)c23)C1 (stereo not drawn),2.41%
17,Cc1cc(C)c(OCC(O)CNC2CC(C)(C)NC(C)(C)C2)c(C)c1 (stereo not drawn),-8.3%
18,COc1ccc(N(CC(=O)Nc2cc(C)ccc2OC)S(=O)(=O)c2ccccc2)cc1,4.76%
19,CC(C)c1ccc(NC(=O)Nc2ccc(Cl)cc2)cc1,-2.12%
20,O=C(CN1C(=O)S/C(=C/c2cccs2)C1=O)Nc1ccc(Cl)cc1,-5.31%
21,CC(C)c1ccc2c(c1)CCC1C2CCCC1(C)C(=O)O (stereo not drawn),0.0538%

row,Compound,% Inhibition @ 10 uM
1,Cc1cccc(C)c1NC(=O)NC1CCCCC1,1.13%
2,Cn1cc(Br)c(C(=O)Nc2ccn(Cc3cccc4ccccc34)n2)n1,0.389%
3,CCCCOc1ccccc1C(=O)Nc1nonc1-c1ccc(OC)cc1,2.29%
4,O=C1Nc2ccc(Cl)cc2SC(c2ccc(Cl)cc2)C1O (stereo not drawn),-0.99% and 1.19%
5,COc1ccccc1/C=C(\NC(=O)c1ccccc1)C(=O)Nc1ccccc1C,4.08%
6,Cc1c(C2(c3c(C)n(C)n(-c4ccccc4)c3=O)C(=O)Nc3ccccc32)c(=O)n(-c2ccccc2)n1C,0.634%
7,COc1cc(OC)cc(C(=O)Nc2nc(-c3nnn(-c4cc(C)ccc4OC)c3C)ns2)c1,3.12%
8,Cc1ccc(CS(=O)Cc2ccc(C(=O)NC(C)C)o2)cc1 (stereo not drawn),-4.21%
9,Cc1ccc(-n2ncc(C(=O)NC(C)C)c2C2CCN(C(=O)OC(C)(C)C)CC2)cc1,-2.53%
10,CC1=C(CCN2CCCC(C(N)=O)C2)C(C)(C)CCC1 (stereo not drawn),0.0792%
11,COC(=O)c1cc(C)nc2c1c(C)nn2-c1cccc(Cl)c1C,1.46%
12,CC1(C)CN2C(=O)C(NC(=O)c3ccccc3)(C(F)(F)F)N=C2S1 (stereo not drawn),-1.11%
13,O=C(Cn1cnc2onc(-c3ccc(F)cc3)c2c1=O)N1CCOCC1,-2.14%
14,Nc1nnc(-c2ccccc2)c(-c2ccccc2)n1,-5.51%
15,CCCC(=O)Nc1cccc2c(NC(=O)CCC)cccc12,-2.85%
16,O=C(Nc1cccc(NC(=O)c2cccs2)n1)c1cccs1,-7.3%
17,Clc1ccc(C2CC(c3ccco3)n3ncnc3N2)cc1 (stereo not drawn),-4.52%
18,CN1C(=O)/C(=C/c2cccc(O)c2)S/C1=N/c1ccc(Cl)cc1,5.37%
19,CCCc1nc(SC)ncc1C(=O)NCc1ccc(C)o1,2.25%
20,Cc1ccc(C2C(C(=O)c3cc4ccccc4o3)=C(O)C(=O)N2CCCn2ccnc2)cc1 (stereo not drawn),-7.34%
21,COc1nc(-c2cccs2)cc(-c2ccc(C)cc2)c1C#N,-5.63%

row,Compound,% Inhibition @ 10 uM
1,CCOC(=O)C1=CN(C)C=C(C(=O)OCC)C1c1ccc(C)s1,-5.05%
2,CC1=NN(c2ccccc2)C(=O)/C1=C/c1ccc(Cl)cc1Cl,-3.55%
3,Nc1nc(CS(=O)(=O)c2ccc3ccccc3c2)cs1,-2.7%
4,COc1ccc(CN2COc3ccc4c(oc(=O)c5ccccc54)c3C2)cc1,2.54%
5,CCOC(=O)C1=C(NC(=O)Cc2ccccc2)c2ccccc2CC1(CC)CC,-0.178%
6,Cc1ccc(CNCc2c(C(=O)O)n(Cc3ccccc3C)c3ccccc23)o1,-0.285%
7,Cc1ccccc1OCC(O)Cn1c(NCc2ccccc2)nc2c1c(=O)[nH]c(=O)n2C (stereo not drawn),4.36%
8,CCCOC(=O)C1=C(C)NC(=O)NC1c1ccccc1OC (stereo not drawn),4.35%
9,O=C(N/C(=C\c1ccccc1Cl)C(=O)N1CCCCCC1)c1ccccc1,-5.07%
10,CC(C)(C)c1ccc(/C=C2/N=C(c3ccccc3)NC2=O)cc1,0.9%
11,COc1ccc(S(=O)(=O)N(CC(=O)NCc2ccco2)c2ccc(C)cc2)cc1,1.59%
12,COc1ccc(C(=O)N/C(=C\c2ccccc2)C(=O)Nc2ccccc2C(=O)O)cc1,2.36%
13,Cc1cc(/C=C2\C(=N)N3N=C(S(C)(=O)=O)SC3=NC2=O)c(C)n1-c1cccc(C(F)(F)F)c1,3.53%
14,COc1cccc(C2CN(c3ccc(F)cc3F)N=C2c2cccs2)c1OC (stereo not drawn),5.03%
15,Cc1ccc(OCC(=O)Nc2ccc(C)cn2)cc1,0.145%
16,CC(C)c1nnc(NC(=O)/C=C/c2ccc3c(c2)OCO3)s1,0.222%
17,C1=C(c2nc3ccccc3s2)N2CCCN=C2S1,-1.98%
18,c1nc(NCCN2CCOCC2)c2sc3nc(N4CCOCC4)c4c(c3c2n1)CCCC4,1.8%
19,CCN(CC)CN1C(=O)C2C3c4ccccc4C(c4ccccc43)C2C1=O (stereo not drawn),-4.82%
20,Cc1ccccc1NC(=O)C1(NC(=O)Cc2n[nH]c(N)n2)CCCCC1,-7.23%
21,CCOC(=O)C1=C(CS(=O)(=O)c2ccc(F)c(C)c2)NC(=O)NC1c1ccc(O)c(OC)c1 (stereo not drawn),2.85%
